Data as given in PMC4336329 (PLoS ONE, 2015).
The campaign covered roughly 310,000 compounds. About 2,200 (0.71%) showed an effect of 50% or more. The effect is printed as a negative number. Some of the results follow.

biological target: human ether-à-go-go-related gene (hERG) potassium channel (human, UniProt Q12809); test: primary screen, population patch clamp on CHO cells stably expressing hERG
Sequence (Q12809 whole entry, looked up): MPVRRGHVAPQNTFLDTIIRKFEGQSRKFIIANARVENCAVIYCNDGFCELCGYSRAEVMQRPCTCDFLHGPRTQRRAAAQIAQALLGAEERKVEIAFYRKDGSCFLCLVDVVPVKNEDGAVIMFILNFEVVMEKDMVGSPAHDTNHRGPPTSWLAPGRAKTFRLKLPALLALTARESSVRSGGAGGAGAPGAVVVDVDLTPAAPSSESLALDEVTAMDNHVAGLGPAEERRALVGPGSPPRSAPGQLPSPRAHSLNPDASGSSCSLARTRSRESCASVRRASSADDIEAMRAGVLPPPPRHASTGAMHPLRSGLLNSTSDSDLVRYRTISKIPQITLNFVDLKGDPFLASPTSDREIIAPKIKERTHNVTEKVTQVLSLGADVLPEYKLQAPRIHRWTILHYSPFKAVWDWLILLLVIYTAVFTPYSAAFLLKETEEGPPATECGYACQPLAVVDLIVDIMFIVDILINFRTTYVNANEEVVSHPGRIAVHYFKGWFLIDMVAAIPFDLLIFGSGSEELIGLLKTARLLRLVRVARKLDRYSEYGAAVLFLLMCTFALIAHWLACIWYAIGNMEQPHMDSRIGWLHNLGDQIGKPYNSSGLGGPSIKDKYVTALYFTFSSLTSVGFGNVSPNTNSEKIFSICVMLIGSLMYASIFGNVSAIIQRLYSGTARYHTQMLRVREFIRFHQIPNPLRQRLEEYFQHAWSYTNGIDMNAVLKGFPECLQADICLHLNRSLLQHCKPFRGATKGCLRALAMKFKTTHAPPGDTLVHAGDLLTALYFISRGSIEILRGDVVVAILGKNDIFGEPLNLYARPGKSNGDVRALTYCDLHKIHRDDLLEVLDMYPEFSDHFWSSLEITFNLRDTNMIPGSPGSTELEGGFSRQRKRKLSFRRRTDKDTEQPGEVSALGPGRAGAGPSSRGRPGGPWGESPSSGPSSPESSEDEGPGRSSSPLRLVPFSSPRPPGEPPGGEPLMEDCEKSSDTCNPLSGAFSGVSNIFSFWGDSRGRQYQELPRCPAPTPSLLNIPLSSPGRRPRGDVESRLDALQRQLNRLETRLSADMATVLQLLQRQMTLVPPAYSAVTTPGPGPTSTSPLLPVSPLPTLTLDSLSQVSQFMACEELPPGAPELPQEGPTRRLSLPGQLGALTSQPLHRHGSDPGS

Compound | hERG current change (%, negative = inhibition) at 1uM
O=C(NCc1ccccn1)c1ccco1 | 8.85%
O=c1[nH]c(N2CCN(c3ccccc3)CC2)nc2c1CCC2 | 5.93%
Cc1c(NC(=O)C(C)N2C(=O)c3ccccc3C2=O)c(=O)n(-c2ccccc2)n1C (centres unmarked) | 12.5%
O=C(O)c1cc(Cl)ccc1NC(=O)C1CCCO1 (centres unmarked) | 11%
COc1cc(S(=O)(=O)N2CCN(c3ccccc3)CC2)ccc1F | 8.18%
COc1ccc(Cc2nnc(NC(=O)c3cccc([N+](=O)[O-])c3C)s2)cc1 | -3.91%
Cn1nc(C(=O)N2CCN(S(=O)(=O)/C=C/c3ccccc3)CC2)c2ccccc2c1=O | -9.45%
CCc1ccc(OCCCCN(C)Cc2ccccc2)cc1.O=C(O)C(=O)O | 13.4%
Cc1ccc(S(=O)(=O)CCC(=O)OC(C)C(=O)NC2CCCCC2C)cc1 (centres unmarked) | 11.1%
O=C(NCc1cccs1)c1ccccc1 | 7.23%
O=C1C(Cl)=C(N2CCOCC2)C(=O)N1c1cccc(Cl)c1 | 15.5%
CCN(CCCNC(=O)C1CCN(S(=O)(=O)c2cccc3nonc23)CC1)Cc1ccccc1 | -24.1%
COc1cc(C(=O)NCCOc2ccc(C)c(C)c2)cc(OC)c1OC | 9.27%
N#Cc1c(NC(=O)COC(=O)c2ccc(F)cc2)sc2c1CCC2 | -0.727%
CCCC(=O)C1=C(N2CCCC2)CC(C)(C)C(C(=O)OC)C1=O (centres unmarked) | 10.1%
CCCCCn1c(=O)[nH]c2cc(C(=O)NCCCN3CCCCC3)ccc2c1=O | -4.05%
Nc1nc(SCc2ccccc2Cl)[nH]c(=O)c1-c1ccccc1 | 13.8%
C/C(=N\Nc1ccc(S(N)(=O)=O)cc1[N+](=O)[O-])c1cccs1 | 16%
c1ccc(CN2CCOCCOCCOCCOCCOCCOCC2)cc1 | -12.4%
O=[N+]([O-])c1ccc(N2CCN(c3cccc(Cl)c3)CC2)nc1 | 10.6%
Cc1csc(C(C)NC(=O)c2ccc(OC3CCN(CCc4ccccc4)CC3)cc2)n1 (centres unmarked) | -22%
Cc1cc(-c2ccccc2)[nH]c(=O)c1C#N | 13.4%

Compound | hERG current change (%, negative = inhibition) at 1uM
O=C(O)CCc1nnc(SCC(=O)Nc2ccc(Cl)c(C(F)(F)F)c2)[nH]c1=O | 13.7%
COc1ccc(NC(C)=[N+](C)CCNS(=O)(=O)c2ccc(Cl)cc2)cc1Cl.[I-] | -35.5%
Cc1cc(NC(=O)c2sc3ccccc3c2O)no1 | 15.5%
CCCN(CCC)CCCNC(=S)Nc1ccc2nc(N3CCN(C)CC3)cc(C)c2c1 | 4.92%
COc1ccc(C(=O)n2nc(-c3ccc(Cl)cc3)nc2N)cc1OC | 8.83%
COc1cc(NC(=O)c2noc(C)c2[N+](=O)[O-])c(OC)cc1Cl | 13.9%
O=c1c2ccccc2oc2ccc(-c3ccc4[nH]ccc4c3)cc12 | 4.01%
CC(=O)Oc1ccc(CC(C(=O)O)N2C(=O)c3ccccc3C2=O)cc1 (centres unmarked) | 17.2%
Cn1c(C(=O)Nc2ccc(Cl)cc2)cc2cc(Cl)ccc21 | 10.1%
Cc1cc(C)c2sc(C)[n+](CCCS(=O)(=O)[O-])c2c1 | 4.6%
O=c1[nH]c(=O)n(-c2cccc3ccccc23)c(O)c1/C=N/N1CCCCCC1 | 13.5%
Cc1cccc(OCC(=O)Nc2ccc(N3CCCC3)cc2)c1C | 16.6%
COC(=O)/C=C1\N/C(=N/c2nc(C)c3cc(OC)ccc3n2)NC1=O | 12.8%
O=C(Nc1ccccc1)C1=C[C@@H](C2CCCCC2)C[C@@H](OCc2ccc(CO)cc2)O1 | 12.6%
Cc1ccc(CSCC(=O)N(C)CC(=O)Nc2ccc(Cl)c(Cl)c2)cc1 | 9.05%
COc1ccccc1C(=O)NCCCNc1ccc([N+](=O)[O-])cc1 | -15.1%
CC1C(=O)N2CCCc3cc(S(=O)(=O)N4CCC(C(N)=O)CC4)cc1c32 (centres unmarked) | 17.4%
O=C(NCC1CCCO1)c1ccccc1NC(=O)c1cccc2ccccc12 (centres unmarked) | 9.99%
CC(=O)Nc1nnc(SCC(=O)c2ccc3c(c2)Cc2ccccc2-3)s1 | 14.9%
CCN1C(=O)[C@H]2[C@@H](c3ccc(-c4ccc(OC)cc4)cc3)N[C@@](CC(C)C)(C(=O)OC)[C@H]2C1=O.O=C(O)C(F)(F)F | 2.61%
CCOC(=O)c1c(NC(=O)CCS(=O)(=O)c2ccccc2)sc2c1CCN(C(C)C)C2.Cl | -64.6%
CC(C)C12CN(C(=O)c3ccccc3[N+](=O)[O-])CC(C(C)C)(CN(C(=O)c3ccccc3[N+](=O)[O-])C1)C2=O | 14.2%

Compound | hERG current change (%, negative = inhibition) at 1uM
COC(=O)c1c(NC(=O)C2CCC2)sc(C(=O)N(C)C)c1C | 22.5%
O=c1[nH]c2ccccc2c(O)c1-[n+]1ccccc1.[Cl-] | 14.9%
COc1ccc(CC(=O)NC(C)c2nnc(SCc3nc4ccccc4c(=O)[nH]3)n2C)cc1 (centres unmarked) | 0.306%
COc1ccc(Cl)cc1C(=O)Nc1ccc(NC(C)=O)cc1 | 19.9%
CCN1CCN(CCCNC(=O)c2ccc(CS(=O)c3ccc(Br)cc3)o2)CC1 (centres unmarked) | 23.1%
CCOc1ccccc1/C=N/Nc1ccc(Cl)nn1 | 12.2%
CCOC(=O)c1nnn(-c2nonc2N)c1-c1cccc2ccccc12 | 14.1%
COc1ccc(Cc2nc3ccccc3n2C)cc1.Cl | 9.27%
Cc1ccc(N2CCN(C(=O)c3ccccc3NC(=O)/C=C\C(=O)O)CC2)cc1 | -1.41%
C=CCn1c(C)cc(C(=O)CN2C(=O)NC3(CCCc4ccccc43)C2=O)c1C (centres unmarked) | 5.43%
Fc1cccc(NC(=S)NNc2ccccc2)c1 | 10.7%
COc1ccc(C(=O)C2CCCN(Cc3ccon3)C2)cc1OC (centres unmarked) | 13.7%
c1ccc(OCc2nnc(-c3ccccc3)o2)cc1 | 7.89%
C/C(=N\NC(=O)c1ccc2c(c1)OCCO2)c1ccccc1 | 13.6%
CCCCN(CC)CCCNC(=O)c1csc2c1CCCCC2 | 39.8%
O=C(Nc1ccc(Cl)cc1)C1CCCN(S(=O)(=O)c2cnc[nH]2)C1 (centres unmarked) | 15.2%
COc1cccc(-c2ccc(SCC(=O)NCCc3ccccc3)nn2)c1 | -4.82%
Cc1cc2oc(=O)cc(CN(C)Cc3cccc(F)c3)c2cc1C | 11.2%
COc1ccc(CS(=O)(=O)c2ncn[nH]2)cc1 | -30.6%
CCOc1cc(-c2cc(-c3ccc(C)o3)nc(N)c2C#N)ccc1O | 5.13%
Cc1ccc(S(=O)(=O)N2CCC(C(=O)N3CCC(C(=O)NCC4CCCO4)CC3)CC2)cc1 (centres unmarked) | -5.05%
N#CCCN(C(=O)CSc1nnc(-c2ccncc2)n1C1CC1)c1ccccc1 | 8.26%

Compound | hERG current change (%, negative = inhibition) at 1uM
Cc1ccc(S(=O)(=O)CCC(=O)NCc2ccccc2F)cc1 | 9.78%
CCC1C=CC=CC[C@H](C)[C@@H](O)[C@](C)(O)C(=O)[C@@H](C)[C@H](O)[C@@H](C)C(=O)[C@H](C)[C@@H](O)[C@H](C)C=CC(=O)OC2[C@@H](C)C(CC1)OC1(CC[C@@H](C)C(C[C@H](C)O)O1)[C@@H]2C (some centres unmarked) | 16.6%
O=C(Nc1ccc(Cl)cc1)c1cc2nc(C3CC3)cc(C(F)(F)F)n2n1 | 1.77%
Cc1cc(OCC(=O)Nc2ccc(S(=O)(=O)N3CCN(C)CC3)cc2)ccc1Br | -2.44%
COc1ccccc1N1C(=O)c2cccc3c(N(C)CCO)ccc(c23)C1=O | 10%
COc1ccc(/C=N/NC(=O)CNC(=O)COc2ccccc2)cc1 | 17.7%
CC(C)NC(=O)Cn1cc(C(=O)COc2ccccc2)c2ccccc21 | 5.63%
Cc1cc2c(c(=O)n1CCN(C)C)C(c1ccc(Br)cc1)C(C#N)=C(N)O2 (centres unmarked) | -19.8%
O=C(Nc1nnc(-c2ccncc2)o1)c1ccccc1 | 7.47%
CCCCCCn1c(O)c(C=NCCCn2ccnc2)c(=O)[nH]c1=O | -0.0725%
CCCCNc1cc(=O)n(C)c(=O)n1C | 3.86%
CCCCn1nc2cc(C(=O)NCc3ccccc3)ccc2c1OCC | 10.2%
CCOc1ccc(Nc2nc(Nc3ccc(O)cc3)nc(C)c2[N+](=O)[O-])cc1 | 10.5%
Cc1ccc(NS(=O)(=O)c2ccc(N/N=C/c3ccccc3OCC(=O)O)c([N+](=O)[O-])c2)c(C)c1 | 9.1%
CC(C)(C)OC(=O)N1CCC(C(=O)N[C@@H](Cc2ccccc2)C(=O)O)CC1 | 14.5%
CCNC(=S)N(Cc1cc2cccc(C)c2[nH]c1=O)C1CCCC1 | 9.86%
CCN(CC)CCn1c(SCC(=O)Nc2ccc3c(c2)CCC3)nc2ccccc2c1=O | -13.1%
CC(Oc1ccccc1Cl)C(=O)Nc1ccc(S(=O)(=O)Nc2nccs2)cc1 (centres unmarked) | 3.88%
CC(C)=CC1C=C(C)C(C)C2C(=O)NNC(=O)C12 (centres unmarked) | 16.2%
COC(=O)[C@H]1Cc2c([nH]c3ccccc23)[C@H](c2ccccc2)N1 | 7.5%
